# From paper PMC6919601, “Identification of Plasmodium dipeptidyl aminopeptidase allosteric inhibitors by high throughput screening” (PLoS ONE, 2019)
# Screen size: about 110,000 compounds; about 230 (0.21%) showed an effect of 50% or more. The list shows a part of the results.
# Target: DPAP1 (Plasmodium falciparum, UniProt Q8IIJ9)
# Test: primary screen, percent inhibition; read by cleavage of a fluorogenic dipeptide substrate; higher = more effect of the substance
# Design: species or system P. falciparum D10 trophozoite lysates; single well
# 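Also: 30 min substrate incubation versus DMSO and 10 µM JCP410 controls.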
# DPAP1, sequence (Q8IIJ9 whole entry, looked up): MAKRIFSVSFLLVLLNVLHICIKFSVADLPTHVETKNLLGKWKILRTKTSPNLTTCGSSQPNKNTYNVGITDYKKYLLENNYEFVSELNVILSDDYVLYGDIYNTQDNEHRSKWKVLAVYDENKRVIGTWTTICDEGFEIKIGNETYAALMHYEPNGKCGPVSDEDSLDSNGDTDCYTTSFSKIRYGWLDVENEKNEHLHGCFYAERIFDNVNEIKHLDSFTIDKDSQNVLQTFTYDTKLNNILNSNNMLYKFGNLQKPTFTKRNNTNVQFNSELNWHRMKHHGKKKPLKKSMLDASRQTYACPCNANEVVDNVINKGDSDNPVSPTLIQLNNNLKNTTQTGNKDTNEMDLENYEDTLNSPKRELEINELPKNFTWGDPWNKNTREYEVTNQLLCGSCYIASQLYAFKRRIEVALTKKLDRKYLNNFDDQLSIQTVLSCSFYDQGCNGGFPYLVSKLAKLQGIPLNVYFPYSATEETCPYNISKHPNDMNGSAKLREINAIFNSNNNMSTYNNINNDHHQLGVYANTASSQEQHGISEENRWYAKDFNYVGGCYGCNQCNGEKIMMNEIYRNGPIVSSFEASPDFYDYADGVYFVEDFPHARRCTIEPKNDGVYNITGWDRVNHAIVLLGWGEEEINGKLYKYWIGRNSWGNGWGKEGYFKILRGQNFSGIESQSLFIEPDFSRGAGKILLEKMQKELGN
row,SMILES,% Inhibition @ 10 uM [%]
1,O=C(O)CCC(=O)N1CCSc2ncccc21,7.75
2,Cc1ccc(/C=C(/C#N)c2nc(-c3ccc(-c4ccccc4)cc3)cs2)o1,2.13
3,OC1CCCN(Cc2cccc3ccccc23)C1 (stereo not shown),1.48
4,COc1cc(C(=O)/N=c2\sc3c(n2C)-c2ccccc2CC3)cc(OC)c1OC,-3.33
5,COc1cc(C2c3c(oc4cc(C)c(C)cc4c3=O)C(=O)N2c2nccs2)cc(OC)c1OC (stereo not shown),0.415
6,Cc1ccc(-c2c(O)c(=O)/c2=N\C2CCCC(C)C2C)cc1 (stereo not shown),0.309
7,Cc1c(O)c2c3c(cccc3c1O)C(=O)N(c1ccccc1)C2=O,2.36
8,Cc1ccc(-c2cc(C(=O)Nc3cccnc3)c3ccccc3n2)o1,-5.06
9,CCO/C(O)=C1/C(C)=NC(=S)NC1c1ccc(OC)cc1 (stereo not shown),-8.49
10,COc1cccc(C(=O)N(Cc2cccc(Cl)c2)C2CCS(=O)(=O)C2)c1 (stereo not shown),6.69
11,CCC(C(=O)Nc1nn2c(-c3ccccc3)nnc2s1)c1ccccc1 (stereo not shown),-1.56
12,COc1ccc(C(=O)Nc2cc(C#N)c3nc4ccccc4n3c2O)cc1,0.032
13,CCC(COc1nnnc2ccccc12)NC(=O)C1CCN(S(C)(=O)=O)CC1 (stereo not shown),-1.07
14,Cc1csc(NC(=O)C(CCS(C)(=O)=O)N2Cc3ccccc3C2=O)n1 (stereo not shown),0.0322
15,COc1ccc(-c2cc(C(=O)Nc3sc(C)c(C)c3C(N)=O)c3ccccc3n2)cc1OC,9.88
16,Cc1cccc(C)c1CC(=O)N1CCOCC1,3.53
17,O=C(COc1ccc(Cl)cc1Cl)NCc1ccccc1,3.16
18,N#CC1=C(O)Oc2ccc(N)cc2C1c1ccccc1F (stereo not shown),-0.25
19,O=C1c2cccc3cccc(c23)N1CN1CCN(c2ccccn2)CC1,6.24
20,CC1=C(C(=O)Nc2ccc(Cl)cc2)C(c2ccncc2)n2nc(CCCO)nc2N1 (stereo not shown),3.83
21,CC(O)C(=O)NS(=O)(=O)c1ccc(C(C)C)cc1 (stereo not shown),-8.2
22,COc1ccc(S(=O)(=O)NCc2ccco2)c2cccnc12,-7.8
23,Fc1ccccc1Nc1nc(-c2ccccc2)cs1,3.61
24,NC(=O)C1CCN(C2CC(=O)N(c3ccc(F)cc3)C2=O)CC1 (stereo not shown),0.76
25,Cc1ccc(NC(=O)C2CCCN(S(=O)(=O)c3c(C)noc3/C=C/c3cccs3)C2)nc1 (stereo not shown),1.72

row,SMILES,% Inhibition @ 10 uM [%]
1,C=CCOC(=O)c1sc(N2C(=O)c3oc4ccccc4c(=O)c3C2c2cccnc2)nc1C (stereo not shown),-0.828
2,O=C(CCCN1C(=O)c2ccccc2Sc2ncccc21)NCC1CCCO1 (stereo not shown),2.86
3,Cc1n[nH]c2c1C(c1ccc(OC(C)C)cc1)C(C#N)=C(N)O2 (stereo not shown),-6.27
4,O=C1CC(NCc2cccnc2)C(=O)N1c1ccc(Cl)cc1 (stereo not shown),0.874
5,COc1ccc(CN2CCc3ccccc3C2)cc1,1.55
6,COC(=O)c1ccc(/C=N/c2c(-c3ccco3)nc3ccccn23)cc1,7.62
7,CCC(NC(=O)Cn1nnc(-c2ccccc2)n1)C12CC3CC(CC(C3)C1)C2 (stereo not shown),-2.19
8,O=C(NCc1ccco1)c1ccc(Cl)cc1,-1.22
9,COc1ccccc1CN1CCN(C(=O)C(c2ccccc2)c2ccccc2)CC1,10.1
10,COc1cc2c(cc1OC)C(COc1ccccc1OC)N(C(=O)c1cccc(F)c1)CC2 (stereo not shown),8.36
11,c1ccc(-c2nc(-c3ccncc3)no2)cc1,0.944
12,COc1ccccc1-c1nnc(C2CCN(C(=O)c3ccccc3)CC2)o1,-1.08
13,CC1CCN(c2ccc3nnc(CCC(=O)NCc4cccnc4)n3n2)CC1,-3.43
14,COc1ccc(C(=O)NCC2COc3ccccc3O2)cc1 (stereo not shown),-2.29
15,COC(=O)c1cc2sc(Cl)cc2n1Cc1ccccc1F,-10
16,Cc1ccc(N2C(=O)CC(NCC(C)c3ccccc3)C2=O)cc1 (stereo not shown),-0.865
17,FC(F)(F)c1cccc(-c2nnc(-c3ccc4c(c3)OCO4)o2)c1,1.38
18,CCN(CC)C(=O)COc1ccc(C2C(C#N)=C(N)Oc3[nH]nc(COC)c32)cc1OC (stereo not shown),16.1
19,O=c1oc2c3c(ccc2c2c1CCCC2)OCN(Cc1ccco1)C3,-1.96
20,O=C(O)c1ccc(/C=C2\SC(=O)N(CC(=O)N3CCOCC3)C2=O)cc1,2.33
21,COCCNC(=O)C1CCN(Cc2cnn(-c3ccccc3)c2-n2cccc2)CC1,0.623
22,Cc1cccc(-n2nc(C)c(C(=O)N3CCc4ccccc4C3)c2-n2cccc2)c1,-3.61
23,O=C(O)CSCc1nc2ccccc2nc1O,6.13
24,O=S(=O)(c1ccccc1C(F)(F)F)N1CCC(Oc2ccc(-n3cnnn3)cc2)CC1,2.29
